{
  "source": "PubChem BioAssay AID1030",
  "about": "(National Center for Advancing Translational Sciences (NCATS), 2008)",
  "note": "The whole screen tested about 220,000 compounds, of which about 16,000 (7.3%) were called active. Inconclusive results, whose numbers are uncertain, are shown with a selection of clear calls. Calls come from the whole dose curve; as a rule, active = well fitted inhibition curve with a large enough effect (not every such curve was filed as active); inconclusive = small, poorly fitted or top-dose-only effect, or another doubt; inactive = no such curve, though single readings can be large or run the other way. Potencies of inconclusive entries are left out as doubtful fits. Potency is the fitted concentration of half-maximal effect; tags give direction and shape of the fitted curve.",
  "data": [
    {"molecular_target": "Aldehyde dehydrogenase 1A1 (Homo sapiens) (UniProt P00352)", "sequence (P00352 whole entry, looked up)": "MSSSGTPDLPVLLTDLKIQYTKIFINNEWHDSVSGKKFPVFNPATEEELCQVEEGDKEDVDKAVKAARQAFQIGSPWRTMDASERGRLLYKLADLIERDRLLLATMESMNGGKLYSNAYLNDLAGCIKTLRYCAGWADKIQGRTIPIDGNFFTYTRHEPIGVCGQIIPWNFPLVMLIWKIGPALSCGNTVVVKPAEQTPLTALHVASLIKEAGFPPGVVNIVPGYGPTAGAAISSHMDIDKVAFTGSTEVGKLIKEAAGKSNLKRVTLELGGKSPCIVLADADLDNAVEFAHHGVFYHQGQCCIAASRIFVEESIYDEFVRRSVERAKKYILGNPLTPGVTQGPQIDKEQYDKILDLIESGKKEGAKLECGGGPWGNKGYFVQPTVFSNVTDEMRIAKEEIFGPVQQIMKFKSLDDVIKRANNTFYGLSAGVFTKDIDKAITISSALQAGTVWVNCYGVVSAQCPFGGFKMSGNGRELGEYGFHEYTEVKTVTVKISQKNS", "assay": "qHTS Assay for Inhibitors of Aldehyde Dehydrogenase 1 (ALDH1A1);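 for activity, negative = inhibition: plate controls were no enzyme wells and a reference inhibitor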", "details": "Purified ALDH1A1, NADH fluorescence, propionaldehyde substrate; series mostly up to 75.3 µM", "values": [
      {"smiles": "CCn1c(SCC(=O)Nc2nnc(C)s2)nnc1-c1ccncc1", "Potency": "inactive"},
      {"smiles": "O=Cc1ccc(N2CCCC2)c(F)c1", "Potency": "active: 1.58 µM"},
      {"smiles": "COc1ccccc1N1CCN(c2nc3c(C)cccn3c(=O)c2C=O)CC1", "Potency": "inconclusive [inhibitor, single point]"},
      {"smiles": "CC1=C(Cl)C2=NS(=O)(=O)CCN2C=C1Cl", "Potency": "inconclusive [inhibitor, partial curve]"},
      {"smiles": "CCNc1nc(NCC)nc(SCCOC(=O)COc2ccc(Cl)cc2Cl)n1", "Potency": "inactive"},
      {"smiles": "O=C(Nc1ccc(N2CCOCC2)c(Cl)c1)C1CCCCC1", "Potency": "inconclusive [inhibitor, single point]"},
      {"smiles": "CCOc1ccc(-n2c(N)c(C(=O)NCc3ccco3)c3nc4ccccc4nc32)cc1", "Potency": "inconclusive [inhibitor, partial curve]"},
      {"smiles": "CC(C)(C)c1ccc(C(=O)CSc2nc3ccccc3c(=O)[nH]2)cc1", "Potency": "inconclusive [inhibitor, single point]"},
      {"smiles": "COc1cccc(-c2ccc(C#N)c(=O)[nH]2)c1", "Potency": "inconclusive [inhibitor, partial curve]"},
      {"smiles": "CN(C)S(=O)(=O)c1ccc2c(c1)c(=O)c(C(=O)N1CCOCC1)cn2C", "Potency": "inconclusive [inhibitor, single point]"},
      {"smiles": "CCOC(=O)c1c(NC(=O)c2cc(C(C)C)on2)sc(C(C)=O)c1C", "Potency": "inconclusive [inhibitor, single point]"},
      {"smiles": "O=C(Nc1ccc(F)cc1)N(CCCN1CCOCC1)Cc1cc2cc3c(cc2[nH]c1=O)OCCO3", "Potency": "inconclusive [inhibitor, partial curve]"},
      {"smiles": "CCN(CC)S(=O)(=O)c1ccc(N2CCOCC2)c(NC(=O)c2cc([N+](=O)[O-])ccc2Cl)c1", "Potency": "inconclusive [inhibitor, partial curve]"},
      {"smiles": "Cc1cc(C)c2c(n1)nn1c(NCCN3CCOCC3)cc(C)nc21", "Potency": "inconclusive [inhibitor, partial curve]"},
      {"smiles": "COc1cccc(NC(=O)Cn2c(=O)n(CCCC(=O)NCc3ccco3)c(=O)c3ccccc32)c1", "Potency": "inconclusive [inhibitor, single point]"},
      {"smiles": "O=C(CCN1CCCCC1)N1CCc2c([nH]c3ccccc23)[C@H]1c1cccnc1", "activity, negative = inhibition": "inactive: 11.6% [at 13.5 µM]"},
      {"smiles": "COc1ccc(Nc2nc3ccccc3nc2NS(=O)(=O)c2cccs2)cc1", "Potency": "inactive"},
      {"smiles": "N#Cc1ccc(C(=O)Nc2ccc([N+](=O)[O-])cc2)c(F)c1", "Potency": "inactive"},
      {"smiles": "O=C(Cc1coc2ccc3ccccc3c12)NCc1cccs1", "Potency": "inconclusive [inhibitor, single point]"},
      {"smiles": "COc1ccc(C)cc1C1=Nc2ccccc2C1(C)C", "Potency": "inconclusive [inhibitor, single point]"},
      {"smiles": "CN(C(=O)COC(=O)c1ccc[nH]c1=O)C1CCCCC1", "Potency": "inactive"},
      {"smiles": "C[Si](C)(C)Cl", "Potency": "active: 22.4 µM"},
      {"smiles": "COc1ccc(S(=O)(=O)NCC(c2cccnc2)N2CCN(c3ccccc3)CC2)cc1C", "note": "(centres undefined)", "Potency": "active: 12.6 µM"},
      {"smiles": "COC(=O)c1ccc(CSc2ncnc3c2nnn3-c2ccc(OC)cc2)o1", "Potency": "inconclusive [inhibitor, single point]"},
      {"smiles": "CC(/C=N/NC(=O)c1cc(-c2ccncc2)nc2ccccc12)=C\\c1ccco1", "Potency": "inconclusive [inhibitor, single point]"},
      {"smiles": "O=C(Nc1ccccc1F)Nc1ccccc1Br", "Potency": "inactive"},
      {"smiles": "CC[C@@]1(O)C(=O)COc2c1cc1n(c2=O)Cc2c-1nc1cccc(C(C)C)c1c2[Si](C)(C)C", "Potency": "inconclusive [inhibitor, partial curve]"},
      {"smiles": "Cc1ccccc1C(=O)NCCNc1ccc([N+](=O)[O-])cc1", "Potency": "inconclusive [inhibitor, single point]"},
      {"smiles": "C=CCC(C#Cc1ccccc1)[N+](C)(C)CC=C", "note": "(centres undefined)", "Potency": "inactive"},
      {"smiles": "C=C(C)C1Cc2c(ccc(C(=O)O)c2O)O1", "note": "(centres undefined)", "Potency": "inactive"},
      {"smiles": "O=C(CCCOc1ccc(Cl)cc1Cl)n1nnc2ccccc21", "Potency": "inactive"},
      {"smiles": "Cc1ccccc1NC(=O)c1oc(=O)c2ccccc2c1-c1ccccc1", "Potency": "inconclusive [inhibitor, single point]"},
      {"smiles": "Cc1cnc(CNc2ccnc(-c3ccc(C(=O)N(C)C)cc3)n2)cn1", "Potency": "inactive"},
      {"smiles": "C=CCc1cc(C=O)cc(OC)c1OCc1ccc(C(=O)O)cc1", "Potency": "active: 10 µM"},
      {"smiles": "O=C(CSc1ncn(-c2ccccc2)n1)Nc1ccc(Br)cn1", "Potency": "inconclusive [inhibitor, single point]"},
      {"smiles": "COCCNc1c2c(nc3c(-c4ccccc4)c(C)nn13)CCCC2", "Potency": "inactive"},
      {"smiles": "CS(=O)(=O)N1CCN(C(=O)Cc2ccccc2)CC1", "Potency": "active: 8.91 µM"},
      {"smiles": "CSc1ccc(C(=S)N2CCN(C)CC2)cc1", "Potency": "active: 31.6 µM"},
      {"smiles": "CCC(CC)c1nnc(NC(=O)c2ccc3ccccc3n2)s1", "Potency": "inactive"},
      {"smiles": "O=C1CCc2cc(S(=O)(=O)N3CCC(C(=O)NCc4ccccc4Cl)CC3)ccc2N1", "Potency": "inconclusive [inhibitor, single point]"},
      {"smiles": "O=C(Cc1c[nH]c2ccccc12)Nc1cccc(S(=O)(=O)N2CCCCC2)c1", "Potency": "inactive"},
      {"smiles": "CC(=O)OCC1OC(n2ccc3ccccc32)C(OC(C)=O)C(OC(C)=O)C1OC(C)=O", "note": "(centres undefined)", "Potency": "inactive"},
      {"smiles": "COc1cccc(-c2nnc(SCC(=O)N3CCOCC3)o2)c1", "Potency": "inconclusive [inhibitor, single point]"},
      {"smiles": "CC1CCCCN1C(=O)c1cc(F)c(F)cc1Cl", "note": "(centres undefined)", "Potency": "inactive"},
      {"smiles": "CC12CCC(C(=O)NCc3ccco3)(OC1=O)C2(C)C", "note": "(centres undefined)", "Potency": "inconclusive [inhibitor, single point]"},
      {"smiles": "CCCNC(=O)NS(=O)(=O)c1cnccc1Sc1ccc(Cl)c(Cl)c1", "Potency": "inconclusive [inhibitor, full curve]"},
      {"smiles": "CC1CCCCN1C(=O)Nc1cccc(Cl)c1", "note": "(centres undefined)", "Potency": "active: 22.4 µM"},
      {"smiles": "CC(C)NC1(C(N)=O)CCN(Cc2ccccc2)CC1", "Potency": "inconclusive [inhibitor, partial curve, poor fit]"},
      {"smiles": "Cc1cc(OCCCCCn2ccnc2)cc(C)c1Cl", "Potency": "inconclusive [inhibitor, single point]"}
    ]}
  ]
}
